Measured values as given in PubChem BioAssay (NCATS).
Where “and” joins values, the source holds several entries; their conditions need not be identical. Equal values may be shown once. The shares of active, inactive and inconclusive entries below differ from those in the screen. Where the call is inconclusive, the potency comes from a doubtful curve fit. Calls of active or inactive are those of the source. Calls follow the shape of the dose curve; as a rule, active = well fitted inhibition curve with a large enough effect; inconclusive = small, poorly fitted or top-dose-only effect; inactive = no such curve, though single readings can be large or run the other way.
Potency is read from the fitted curve at half-maximal effect; tags tell the direction and shape of the fitted curve.

Assay: Primary qHTS for inhibitors of nuclear receptor binding SET domain protein 2 (NSD2) in an RCH-ACV wild type WT cells (2C) (AID 1645877); also: nearly all actives have a fitted effect of over 70% in size
Conditions: RCH-ACV (leukaemia line) NSD2 WT (2C) viability, CellTiter-Glo, 72 h; series mostly up to 44.9 µM
With CN(C)CCN1C(=O)c2cccc3cc(N)cc(c23)C1=O the Potency was active: 4.17 µM.
With CN1CCN2c3ccccc3Cc3ccccc3C2C1 (stereo unspecified) the Potency was inconclusive: 29.9 µM [inhibitor, single point].
With CCC(C)(C)c1ccc(CC(C)CN2C[C@@H](C)O[C@@H](C)C2)cc1 (stereo partly specified) the Potency was inconclusive: 33.5 µM [inhibitor, single point].
With Nc1ncnc2c1c(-c1cccc(OCc3ccccc3)c1)cn2C1CC(CN2CCC2)C1 (stereo unspecified) the Potency was inconclusive: 0.263 µM [inhibitor, full curve, poor fit].
With CCN(CC)CCOc1ccc(Cc2ccccc2)cc1 the Potency was inconclusive: 23.5 µM [inhibitor, single point].
For COc1ccc2c(c1)c(CC(=O)OCC(=O)O)c(C)n2C(=O)c1ccc(Cl)cc1, the Potency was inconclusive: 23.7 µM [inhibitor, single point].
For Cc1c(C(=O)Nc2ccc(N3C[C@@H](C)O[C@@H](C)C3)nc2)cccc1-c1ccc(OC(F)(F)F)cc1, the Potency was inconclusive: 23 µM [inhibitor, single point] and inactive.
In the case of Nc1cccc(S(=O)(=O)N2CCCN(S(=O)(=O)c3ccc4c(c3)OCCO4)CC2)c1, the Potency is reported as inconclusive: 18.6 µM [inhibitor, partial curve].
With Cc1ccccc1C(=O)c1ccc(Nc2ccc(Br)cc2N)cc1Cl the Potency was active: 10.5 µM and active: 9.2 µM.
For CCCCCCCCCCCCCCCC(=O)O[C@H]1[C@@H](O)[C@@H](O)[C@@H]([C@H](NC(=O)[C@@H]2C[C@@H](CCC)CN2C)[C@H](C)Cl)O[C@@H]1SC, the Potency was “inactive”.
For S=P(N1CC1)(N1CC1)N1CC1, the Potency was inconclusive: 72.1 µM [inhibitor, single point].
